This is an account of results in publication PMC5550436.

Substitutions are numbered along the chain they refer to. In names and notes the source's numbering stands. No constants are given. Whether binding was seen depends on the method and setting. Binding seen in cells or lysates may run through a third protein. Some binding calls cover weakened binding; strength is not graded here. Where a sequence is shown, tags or fusion partners need not be part of it.

In assay [1] the target is T1, MBP-tagged enzymatically inactive CCP2 mutant (H425S and E428Q) (mouse) (UniProt Q8CDK2).
T1 sequence: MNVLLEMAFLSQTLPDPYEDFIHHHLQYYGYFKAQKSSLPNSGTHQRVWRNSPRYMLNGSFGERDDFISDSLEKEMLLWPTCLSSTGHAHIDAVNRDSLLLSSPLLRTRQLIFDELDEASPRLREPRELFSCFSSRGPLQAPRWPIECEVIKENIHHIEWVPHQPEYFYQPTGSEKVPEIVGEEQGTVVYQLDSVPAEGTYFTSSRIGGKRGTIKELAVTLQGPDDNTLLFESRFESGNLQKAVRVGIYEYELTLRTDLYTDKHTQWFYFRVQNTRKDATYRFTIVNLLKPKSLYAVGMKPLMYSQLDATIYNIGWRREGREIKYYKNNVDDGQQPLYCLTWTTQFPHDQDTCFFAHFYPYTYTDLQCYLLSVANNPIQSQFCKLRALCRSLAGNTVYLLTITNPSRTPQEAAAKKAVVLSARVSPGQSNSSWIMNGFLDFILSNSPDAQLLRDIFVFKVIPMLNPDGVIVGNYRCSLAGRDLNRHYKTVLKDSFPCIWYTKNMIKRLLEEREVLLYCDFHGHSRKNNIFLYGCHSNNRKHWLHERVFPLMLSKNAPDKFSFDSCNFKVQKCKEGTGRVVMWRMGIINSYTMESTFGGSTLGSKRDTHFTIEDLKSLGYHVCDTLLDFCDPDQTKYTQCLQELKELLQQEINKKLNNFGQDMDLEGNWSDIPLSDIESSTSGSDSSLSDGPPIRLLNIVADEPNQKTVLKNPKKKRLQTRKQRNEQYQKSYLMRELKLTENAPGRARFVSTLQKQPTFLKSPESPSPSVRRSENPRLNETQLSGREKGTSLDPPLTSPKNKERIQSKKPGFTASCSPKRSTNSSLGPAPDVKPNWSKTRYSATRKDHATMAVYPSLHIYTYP
Put plainly: pull-down; MBP-CCP2-wt or MBP-CCP2-mut incubated with BM lysates; only the target purified.

The target of assay [2] is T2, MBP-tagged wild-type CCP2 (enzymatically active) (mouse) (UniProt Q8CDK2).
T2 sequence: T1 sequence with S425H, Q428E
Described as above.

Assay [3] addresses T3, Myc-tagged extracellular segment (amino acid: 21-239) of IL-7Rα (mouse) (UniProt P16872).
T3 sequence: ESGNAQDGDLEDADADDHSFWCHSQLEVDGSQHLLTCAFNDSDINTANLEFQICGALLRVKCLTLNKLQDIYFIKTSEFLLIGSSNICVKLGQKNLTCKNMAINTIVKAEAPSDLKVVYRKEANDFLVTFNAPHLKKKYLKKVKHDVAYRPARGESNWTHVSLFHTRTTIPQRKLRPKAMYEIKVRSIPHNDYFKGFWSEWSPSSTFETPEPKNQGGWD
Briefly: co-IP; Myc-tagged IL-7Rα segment and Flag-tagged CCP2 co-transfected in 293T cells for 36 h; lysates immunoprecipitated with anti-Myc antibody.

The target of assay [4] is T4, Myc-tagged intracellular segment (amino acid: 265-459) of IL-7Rα (mouse) (UniProt P16872).
T4 sequence: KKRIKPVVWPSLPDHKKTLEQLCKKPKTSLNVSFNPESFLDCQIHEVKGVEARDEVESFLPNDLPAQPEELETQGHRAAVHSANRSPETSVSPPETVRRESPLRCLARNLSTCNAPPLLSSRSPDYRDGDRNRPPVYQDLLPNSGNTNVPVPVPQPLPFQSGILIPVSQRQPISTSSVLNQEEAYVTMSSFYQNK
The description is as above.

The target of assay [5] is T5, Flag-tagged TTLL13 (mouse) (UniProt A4Q9F6).
T5 sequence: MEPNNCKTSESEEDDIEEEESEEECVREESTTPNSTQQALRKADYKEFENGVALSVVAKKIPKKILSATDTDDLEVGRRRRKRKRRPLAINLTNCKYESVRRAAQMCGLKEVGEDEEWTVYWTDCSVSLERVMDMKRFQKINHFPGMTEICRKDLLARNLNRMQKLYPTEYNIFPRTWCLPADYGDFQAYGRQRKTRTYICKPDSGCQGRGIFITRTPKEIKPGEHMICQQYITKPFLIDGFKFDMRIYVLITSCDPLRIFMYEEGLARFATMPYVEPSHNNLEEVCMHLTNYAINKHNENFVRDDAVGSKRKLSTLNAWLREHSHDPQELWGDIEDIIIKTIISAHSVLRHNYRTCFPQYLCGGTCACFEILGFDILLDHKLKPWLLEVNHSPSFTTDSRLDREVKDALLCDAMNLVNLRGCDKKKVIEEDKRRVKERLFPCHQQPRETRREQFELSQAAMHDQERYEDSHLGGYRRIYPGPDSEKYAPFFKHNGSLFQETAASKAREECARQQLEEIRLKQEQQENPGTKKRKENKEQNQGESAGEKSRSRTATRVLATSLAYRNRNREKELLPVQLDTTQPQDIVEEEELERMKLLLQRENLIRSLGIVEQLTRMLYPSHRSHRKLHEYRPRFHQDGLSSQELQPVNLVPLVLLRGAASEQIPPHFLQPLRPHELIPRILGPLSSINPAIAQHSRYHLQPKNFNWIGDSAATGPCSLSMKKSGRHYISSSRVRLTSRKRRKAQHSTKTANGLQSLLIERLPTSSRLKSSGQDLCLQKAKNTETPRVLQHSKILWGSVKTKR
Briefly: co-IP; Myc-IL-7Rα with Flag-TTLL4 or Flag-TTLL13 co-transfected in 293T cells for 36 h, followed by immunoblotting.

Assay [6] addresses T6, Flag-tagged TTLL4 (mouse) (UniProt Q80UG8).
T6 sequence: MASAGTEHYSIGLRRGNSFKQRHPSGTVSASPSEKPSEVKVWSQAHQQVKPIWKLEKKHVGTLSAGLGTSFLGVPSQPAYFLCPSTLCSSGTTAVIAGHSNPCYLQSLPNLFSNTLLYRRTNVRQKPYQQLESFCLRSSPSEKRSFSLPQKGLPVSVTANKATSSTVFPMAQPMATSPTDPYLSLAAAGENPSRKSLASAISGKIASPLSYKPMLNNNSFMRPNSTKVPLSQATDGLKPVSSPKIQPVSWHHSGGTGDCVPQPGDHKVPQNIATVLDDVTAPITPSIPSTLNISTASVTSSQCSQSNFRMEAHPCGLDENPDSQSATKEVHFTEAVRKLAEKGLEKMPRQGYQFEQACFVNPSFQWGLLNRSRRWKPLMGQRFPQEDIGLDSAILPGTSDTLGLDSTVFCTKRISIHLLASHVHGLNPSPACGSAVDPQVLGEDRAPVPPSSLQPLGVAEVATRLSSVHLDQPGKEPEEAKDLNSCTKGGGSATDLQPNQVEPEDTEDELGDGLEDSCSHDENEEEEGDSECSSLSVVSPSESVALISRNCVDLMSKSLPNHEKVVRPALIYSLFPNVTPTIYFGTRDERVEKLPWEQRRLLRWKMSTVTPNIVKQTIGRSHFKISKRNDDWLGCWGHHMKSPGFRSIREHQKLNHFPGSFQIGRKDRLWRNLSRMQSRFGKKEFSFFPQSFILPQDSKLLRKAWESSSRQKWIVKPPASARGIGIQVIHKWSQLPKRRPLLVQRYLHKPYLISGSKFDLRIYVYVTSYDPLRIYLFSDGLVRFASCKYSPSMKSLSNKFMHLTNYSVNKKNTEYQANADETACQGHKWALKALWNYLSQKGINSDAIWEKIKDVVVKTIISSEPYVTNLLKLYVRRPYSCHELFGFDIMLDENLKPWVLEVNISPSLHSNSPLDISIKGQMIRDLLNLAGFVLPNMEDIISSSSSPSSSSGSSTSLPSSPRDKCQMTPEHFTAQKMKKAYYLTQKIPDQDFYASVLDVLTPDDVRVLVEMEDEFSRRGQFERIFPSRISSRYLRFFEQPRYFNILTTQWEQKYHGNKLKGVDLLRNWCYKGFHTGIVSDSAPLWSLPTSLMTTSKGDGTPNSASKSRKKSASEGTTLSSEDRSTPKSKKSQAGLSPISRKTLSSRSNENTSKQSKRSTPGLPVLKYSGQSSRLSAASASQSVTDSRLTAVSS
The assay is described as above.

B1: native IL-7Rα from mouse bone marrow lysates (receptor, UniProt P16872 21-459)
chain: ESGNAQDGDLEDADADDHSFWCHSQLEVDGSQHLLTCAFNDSDINTANLEFQICGALLRVKCLTLNKLQDIYFIKTSEFLLIGSSNICVKLGQKNLTCKNMAINTIVKAEAPSDLKVVYRKEANDFLVTFNAPHLKKKYLKKVKHDVAYRPARGESNWTHVSLFHTRTTIPQRKLRPKAMYEIKVRSIPHNDYFKGFWSEWSPSSTFETPEPKNQGGWDPVLPSVTILSLFSVFLLVILAHVLWKKRIKPVVWPSLPDHKKTLEQLCKKPKTSLNVSFNPESFLDCQIHEVKGVEARDEVESFLPNDLPAQPEELETQGHRAAVHSANRSPETSVSPPETVRRESPLRCLARNLSTCNAPPLLSSRSPDYRDGDRNRPPVYQDLLPNSGNTNVPVPVPQPLPFQSGILIPVSQRQPISTSSVLNQEEAYVTMSSFYQNK
As to B1, the binding entry in assay [1] is given as “binds”; in assay [2] it was “no binding”.

B2: Flag-tagged enzymatic dead CCP2 (H425S and E428Q) (enzyme, UniProt Q8CDK2 1-862)
chain: T1 sequence
Take B2: the values for the binding entry in assay [3] and in assay [4] were “no binding” and “binds”, respectively.

B3: Myc-tagged intracellular segment (amino acid: 265-459) of IL-7Rα (domain or fragment, UniProt P16872 265-459)
chain: T4 sequence
As for B3, the binding entry in assay [5] and in assay [6] was “binds” in each case.
